{"source": "paper PMC6919601", "about": "“Identification of Plasmodium dipeptidyl aminopeptidase allosteric inhibitors by high throughput screening” (PLoS ONE, 2019)", "note": "Screen size: about 110,000 compounds; about 230 (0.21%) showed an effect of 50% or more. The list shows a part of the results.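 Note: 30 min substrate incubation versus DMSO and 10 µM JCP410 controls.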"}
{"biological_target": "DPAP1 (Plasmodium falciparum, UniProt Q8IIJ9)", "sequence (Q8IIJ9 whole entry, looked up)": "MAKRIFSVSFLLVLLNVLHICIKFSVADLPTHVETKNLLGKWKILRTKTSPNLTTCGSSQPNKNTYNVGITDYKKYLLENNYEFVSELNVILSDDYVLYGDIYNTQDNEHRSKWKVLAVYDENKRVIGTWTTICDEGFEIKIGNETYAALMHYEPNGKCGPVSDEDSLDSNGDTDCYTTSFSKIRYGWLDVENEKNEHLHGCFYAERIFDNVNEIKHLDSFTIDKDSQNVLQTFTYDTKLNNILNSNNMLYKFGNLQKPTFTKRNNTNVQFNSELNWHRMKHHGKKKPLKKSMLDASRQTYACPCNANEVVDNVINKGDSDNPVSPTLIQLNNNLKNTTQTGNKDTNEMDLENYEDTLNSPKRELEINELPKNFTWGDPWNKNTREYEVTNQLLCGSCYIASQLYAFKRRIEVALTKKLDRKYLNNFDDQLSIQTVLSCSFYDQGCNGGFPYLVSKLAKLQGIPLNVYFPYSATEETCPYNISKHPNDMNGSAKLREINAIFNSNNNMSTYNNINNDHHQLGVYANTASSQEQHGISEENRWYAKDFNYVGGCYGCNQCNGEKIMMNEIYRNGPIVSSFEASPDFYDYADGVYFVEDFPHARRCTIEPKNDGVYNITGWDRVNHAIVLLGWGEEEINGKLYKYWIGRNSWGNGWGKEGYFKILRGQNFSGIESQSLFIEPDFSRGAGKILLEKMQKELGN", "assay": "primary screen, percent inhibition; read by cleavage of a fluorogenic dipeptide substrate; higher = more effect of the substance", "design": "species or system P. falciparum D10 trophozoite lysates; single well", "units": {"% Inhibition @ 10 uM": "%"}}
{"smiles": "CCN(CCN(C)C)CC1=CC[C@H]2C[C@@H]1C2(C)C", "% Inhibition @ 10 uM": 0.217}
{"smiles": "O=C(Nc1nccs1)c1cccc([N+](=O)[O-])c1C(=O)O", "% Inhibition @ 10 uM": -0.13}
{"smiles": "Cc1nn(C)c(C)c1CNC(=O)c1nn2c(c1Cl)NC(c1cccs1)CC2C(F)(F)F", "note": "(stereo not shown)", "% Inhibition @ 10 uM": -0.988}
{"smiles": "CCOC(=O)c1sc2ccccc2c1NC(=O)c1ccc2c(c1)OCCO2", "% Inhibition @ 10 uM": 20.4}
{"smiles": "O=C(Nc1ccccc1C(=O)O)c1ccc(Br)c(S(=O)(=O)N2CCCCC2)c1", "% Inhibition @ 10 uM": 9.02}
{"smiles": "CCOC(=O)c1c(/N=C/C2C(=O)c3ccccc3C2=O)sc(C)c1C", "% Inhibition @ 10 uM": -5.01}
{"smiles": "Cc1ccc(NC(=O)c2c(-c3ccccc3Cl)noc2C)nc1", "% Inhibition @ 10 uM": -1.93}
{"smiles": "c1ccc(C2CC3CC4(CCCC4)N2O3)cc1", "note": "(stereo not shown)", "% Inhibition @ 10 uM": 1.52}
{"smiles": "Cc1ccc(C(=O)Nc2nc(-c3nnn(-c4cccc(C)c4C)c3C)ns2)cc1", "% Inhibition @ 10 uM": -7.04}
{"smiles": "CC1=C(C(=O)Nc2ccccc2)C(c2cnn(C)c2C)n2c(s/c(=C/c3ccoc3)c2=O)=N1", "note": "(stereo not shown)", "% Inhibition @ 10 uM": 0.389}
{"smiles": "CCOc1cc(/C=C2/NC(=O)N(Cc3ccccc3F)C2=O)c(Br)cc1OC", "% Inhibition @ 10 uM": -0.0626}
{"smiles": "c1cncc(CNCc2cccc3ccccc23)c1", "% Inhibition @ 10 uM": 3.99}
{"smiles": "CC(C)SC1=NSC2=NC(=O)/C(=C\\c3c[nH]c4ccccc34)C(=N)N21", "% Inhibition @ 10 uM": -3.51}
{"smiles": "CC(=O)c1cccc(NC(=O)c2ccccc2C)c1", "% Inhibition @ 10 uM": 3.13}
{"smiles": "COc1ccc(C(=O)O)cc1S(=O)(=O)NCc1ccccc1", "% Inhibition @ 10 uM": 14.5}
{"smiles": "NC(=O)c1ccc(NC(=O)c2cc(C(F)(F)F)cc(C(F)(F)F)c2)cc1", "% Inhibition @ 10 uM": 4.99}
{"smiles": "CC(C)(C)c1ccc(CN(Cc2ccco2)S(=O)(=O)c2ccc(S(N)(=O)=O)cc2)cc1", "% Inhibition @ 10 uM": 6.92}
{"smiles": "CCC(Sc1nc(O)c2c(n1)CCC2)C(=O)NC1CCCCC1", "note": "(stereo not shown)", "% Inhibition @ 10 uM": 12}
{"smiles": "CCCOc1ccccc1C1C(C#N)=C(N)Oc2[nH]nc(-c3ccc4c(c3)OCO4)c21", "note": "(stereo not shown)", "% Inhibition @ 10 uM": -2.77}
{"smiles": "N#CC1=C(N)N(c2nc[nH]n2)C2=C(C(=O)CC(c3ccccc3)C2)C1c1cccc(Cl)c1", "note": "(stereo not shown)", "% Inhibition @ 10 uM": -4.6}
{"smiles": "Cc1ccccc1OCCCSCc1nc2ccccc2[nH]1", "% Inhibition @ 10 uM": -1.74}
{"smiles": "Cc1csc(NC(=O)C2c3ccccc3C(=O)N(CC(C)C)C2c2cccs2)n1", "note": "(stereo not shown)", "% Inhibition @ 10 uM": -4.07}
{"smiles": "CCOc1ccccc1N1CCN(C(=O)NC2CCCCC2)CC1", "% Inhibition @ 10 uM": -4.15}
{"smiles": "COc1cc2c(cc1OC)C(COc1cccc(C(F)(F)F)c1)N(C(=O)C(C)C)CC2", "note": "(stereo not shown)", "% Inhibition @ 10 uM": 4.79}
{"smiles": "CCCOC(=O)CSc1nc(C)c(C)c(C)c1C#N", "% Inhibition @ 10 uM": -3.03}
{"smiles": "Cc1nnc(O)nc1NCc1ccco1", "% Inhibition @ 10 uM": -4.93}
{"smiles": "O=C(c1cc2c(Cl)ccc3c2n1CCO3)N1CCC(N2CCCCC2)CC1", "% Inhibition @ 10 uM": -7.68}
{"smiles": "CCNc1nc2n(c(=O)n1)CCN2CC", "% Inhibition @ 10 uM": -2.48}
{"smiles": "O=C(CCCC(=O)NC1CCCCC1)NC1CCCCC1", "% Inhibition @ 10 uM": -5.96}
{"smiles": "Cc1ccccc1OC(C)C(=O)Nc1ccc2ccccc2c1", "note": "(stereo not shown)", "% Inhibition @ 10 uM": 0.331}
{"smiles": "Cc1ccccc1OCCCCn1cnc2ccccc21", "% Inhibition @ 10 uM": -2.28}
{"smiles": "CCOc1ccc(CCNC(=O)c2c(C)nn(-c3ccc(F)cc3)c2-n2cccc2)cc1", "% Inhibition @ 10 uM": -2.48}
{"smiles": "CC(C)N1C(=O)S/C(=C\\c2cc3c(cc2Br)OCO3)C1=O", "% Inhibition @ 10 uM": 0.147}
{"smiles": "Cc1cccc(C)c1-n1c(C)cc(/C=C2\\C(=N)N3N=C(N4CCOCC4)SC3=NC2=O)c1C", "% Inhibition @ 10 uM": 0.0579}
{"smiles": "Cc1ccccc1-c1nc(CSCC(=O)N2CCc3ccccc3C2)c(C)o1", "% Inhibition @ 10 uM": 3.99}
{"smiles": "CN1CCN(Cc2cccc(Cl)c2Cl)CC1", "% Inhibition @ 10 uM": 1.63}
{"smiles": "COc1ccccc1CNc1cnn(C23C[C@@H]4C[C@@H](CC(CC(=O)O)(C4)C2)C3)c(=O)c1Cl", "% Inhibition @ 10 uM": -1.59}
{"smiles": "Cc1csc2nc(-c3ccc(Br)cc3)cn12", "% Inhibition @ 10 uM": 4.23}
{"smiles": "CC(=O)Nc1ccc(S(=O)(=O)Nc2ccc(S(=O)(=O)Nc3ccc(C)cc3C)cc2)cc1", "% Inhibition @ 10 uM": 0.795}
{"smiles": "c1ccc(CN2CCCCCCC2)nc1", "% Inhibition @ 10 uM": -4.75}
{"smiles": "O=C(O)CCC(=O)N1N=C(c2ccco2)CC1c1ccco1", "note": "(stereo not shown)", "% Inhibition @ 10 uM": 0.472}
{"smiles": "CC1=C(C(=O)Nc2ccccc2C)C(c2cccs2)NC(=O)N1", "note": "(stereo not shown)", "% Inhibition @ 10 uM": -15.9}
{"smiles": "Cc1sc2c(=O)n3c(nc2c1C(=O)NCc1ccccc1)CCCCC3", "% Inhibition @ 10 uM": -1.65}
{"smiles": "Cc1ccc(-n2ncc(C(=O)NCc3cccnc3)c2C2CCN(C(=O)OC(C)(C)C)CC2)cc1", "% Inhibition @ 10 uM": -6.76}
{"smiles": "Cc1ccccc1Cn1c(CN2CCN(Cc3ccccc3)CC2)nc2c1c(=O)[nH]c(=O)n2C", "% Inhibition @ 10 uM": 24.9}
{"smiles": "COc1cccc(-c2cc(C(=O)Nc3ccccc3C(N)=O)c3ccccc3n2)c1", "% Inhibition @ 10 uM": -1.79}
{"smiles": "Cc1cc(C)c(S(=O)(=O)Nc2ccc(N3CCOCC3)cc2)c(C)c1", "% Inhibition @ 10 uM": -2.63}
{"smiles": "COc1ccc(/N=c2\\scc(-c3ccc(OC(F)F)cc3)n2CCO)cc1", "% Inhibition @ 10 uM": -3.39}
{"smiles": "Cc1ccc(-c2nn(CC(=O)NCc3ccccc3)c(=O)c3ccccc23)cc1", "% Inhibition @ 10 uM": 0.029}
